From the supplement of paper PMC10126150
Sequences with one replicate were seen in a single cluster, so their values are uncertain.

tested on: ATP; assay: switch fluorescence ratio, 500 uM ATP over buffer (Cy3 cluster intensity, sum of 5 cycles each) (fold (ratio)); higher = stronger signal-on switching upon ATP binding; sequences stand for … in TCGTCGGCAGCGTCAGATGTGTATAAGAGACAGTTTTTTTTTTTTTTTTTTTTTTTTT…TC; conditions: aptamer strand: ATP DNA aptamer (quencher-CACCTGGGGGAGTATTGCGGAGGAAGG + anchor), 100 nM annealed; ATP concentration: 500 uM; one replicate
Summary of the method: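 The fluorescence ratio divides summed target-cycle Cy3 intensity by summed buffer-cycle Cy3 intensity for each cluster and is averaged per switch-domain sequence. Cy3-labelled switching-strand clusters on a modified Illumina MiSeq flow-cell were annealed to 100 nM quencher-labelled ATP aptamer, then imaged in selection buffer and again after 15 min with 500 uM ATP at 22 °C. Five such cycles were run, with NaOH stripping and re-annealing between them, and clusters outside 100-1000 RFU were excluded.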
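Further: ATP exposure 15 min at 22 °C before imaging.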

Sequence | switch fluorescence ratio
CCACAGTCG | 1.08
GGGAAAGTTC | 0.978
TCTTTAAGCG | 1.02
AGGATCGCCA | 0.988
TGCCGGTGAA | 1.04
GTAACGCATT | 0.994
GTGCCCTAGT | 1.01
CGAGGCTTTG | 1
CACAGAGGAA | 1
GCAGCGCTGC | 1.04
TTTTTAGC | 1.01
TGGAGACTGA | 1
TATGTAGCA | 1.04
CCATGTTCGT | 1
TAACCGGGGT | 0.983
CCACAGGACT | 1.17
CACAATAGAA | 1.02
GACTTTAGTC | 1.02
AGCCACGGGG | 0.972
TGACTGCCCC | 1.09
CAGGAAAAAT | 1.04
GGACGCCTGT | 1
AAGCTCGCGG | 1.03

Sequence | switch fluorescence ratio
GAGGGCCCAA | 0.991
GAGGTCGTAC | 1.01
GACGTAGGCG | 1.11
ATTCAGAGTC | 1.06
CTTGGACTAG | 0.994
GGGTTCTACA | 1.02
CACACCTACG | 1.64
CTAGCTAATC | 1.43
CGGCTCTTTT | 1.05
TTAATTCTAA | 1.02
AAGCTAGACG | 0.974
ATACGGAGGT | 1
AAACATTGTA | 1
GGGTGCGGGA | 0.967
GGTTATAGAG | 0.986
GATTAAATAA | 0.996
CGGAAGCGTT | 1.03
TCGGCGCCTA | 0.978
TTGGTCTCAC | 0.985
GGCGTTGCTT | 1.03
GTGAAGGAGG | 0.973
CGTATTAATG | 1.07
TTCGGGGAGA | 0.998

Sequence | switch fluorescence ratio
CTGTTTTCCG | 1.02
GTTTAAAAGT | 0.998
AGAATTACGG | 1.01
TAGGGGTGT | 1.33
GCGTTGTGGT | 1.01
TATATGCGGT | 0.967
ATGGTGATTG | 0.945
AGCATAAGAA | 0.967
CCGCCCTTTT | 1.93
CTGCTACATA | 1.06
CTCTGCTAAG | 1.51
CTTCATGGGG | 1.01
CCTGCAGACT | 1.65
TGGAGAATTG | 0.991
CGTTTCGTTA | 0.972
TGGATTAGCG | 0.966
AAAATCGGAA | 1.02
TGTTGAGACA | 1
CCATTGAGGG | 1.03
AAATAGTTAC | 1.09
CCATTCTTTG | 1.01
CCGTGCCATA | 2.12
TTGGGAATGG | 2.4

Sequence | switch fluorescence ratio
GCGAGGGGCC | 1.02
GTTCGACACG | 0.986
GTTTTCAAAT | 1.05
GCCACTTGCC | 0.932
TATGTGGCAT | 1.01
TAGCTTAATT | 1.04
GTTTAGGTAG | 1.03
GATATTGCGC | 0.99
AGTCGGTTGG | 1.03
TTCTTTTTTC | 0.976
TCGTCCAT | 0.991
TATTTGTAGC | 1.04
AGCGGTTAAC | 1.05
TACAAGGGAG | 0.949
ATATTACGAT | 1.04
CGTCAAGTTA | 0.987
TCGCATTCGG | 1.2
TCTACAGTAA | 1.2
CACTGTCCGG | 1.03
ACCGTGCGTT | 0.997
GATGGGTGGA | 0.947
GTAATACAAG | 1
GTTAGTTCTG | 0.994

Sequence | switch fluorescence ratio
GATTCAGGTG | 2.82
ACGAGTAAGA | 1.02
TTTTGCCCGT | 1.03
AGGGACGACT | 1.03
TACTCGTTGG | 0.983
GATTAACGAT | 1.05
GCTTTGTGAA | 0.999
GAGATATCAA | 0.961
ACCGTTGGGA | 1
TCTGGATCGT | 1
ACGGTGCCGA | 1.04
GCGAACTTTC | 1
GCTCCAATTA | 1.34
AGTAGCTTGA | 1.02
TCCAACTCCC | 1.61
GGTGGTGGTT | 1.03
AACAGTAAGA | 1.05
CTTATTAGCA | 1.01
TGTCGTTTTG | 1.02
AGAGCCTATA | 0.967
GCGGAGCGTC | 1.15
GTTGAAAACC | 1.01
CATTTGTCTC | 0.97

Sequence | switch fluorescence ratio
GGTTACTGCA | 1.03
CGTTCGCCCT | 1.28
CTTGTGGTTG | 0.978
TCATGTTGCC | 1.01
TCTGTTGAA | 0.996
GATCGAGTGC | 1.1
CGAGAGTGGT | 0.993
TAATAGAATC | 0.975
GCATAAATCG | 0.999
TGTTCGT | 0.98
AACCTTAAAT | 1.03
GGGTGACTTC | 0.947
ACTCACAGTT | 1.21
TGGAAGTTGT | 1.05
TCAAAGGGG | 1
TTTGTATTC | 1.08
GCGAGGGACG | 0.976
TCTATGTCCA | 1.04
CTTGACACTC | 1.02
TGGCAGATTA | 0.972
ACATGAATAG | 1.02
AAGAGGGCTC | 1.03
CATTATGCAC | 1.11

Sequence | switch fluorescence ratio
CAGATGAGA | 0.984
GATTGTGCGA | 1.02
ACGCAGTTTT | 1
AGGGAGGCCA | 1.01
AAGTCTGGAT | 0.998
ATAGGGGTG | 1.1
TAATAAACAC | 1.08
AGTGGACACC | 0.976
CGTACAGACT | 1.04
GATCCATTTC | 0.952
CCGAGACTAC | 3.61
TTGCGCAAA | 1.02
TTGGCGATGC | 1.73
AATAAGATAC | 1.25
GCTCAACTTC | 0.986
AGTAGGATAC | 0.97
GCGGATTACT | 1.22
CCTAACGGGT | 1.02
CGTAGCTCAG | 1.1
